Assay results taken from PubChem BioAssay AID1508623 (National Center for Advancing Translational Sciences (NCATS), 2021).
Screen size: about 48,000 compounds; about 450 (0.94%) were called active. Inconclusive results (about 19%) are left out. The call rests on the fitted dose curve; in most records, active means well fitted inhibition curve with a large enough effect; inconclusive means small, poorly fitted or top-dose-only effect; inactive means no such curve, though single readings can be large or run the other way. This is one part of the list.

Experiment: Primary qHTS for Identification of Small Molecule Inhibitors of Huntingtin Promoter Activity; further: nearly all actives have a fitted effect of over 50% in size
Conditions: HEK293 HTT promoter firefly luciferase reporter (activity 0% = vehicle and -100% = no light), 24 h; series mostly up to 57.5 µM; activity change, negative = inhibition: at the top concentration
Outline: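 Firefly luciferase readout (Dual-Glo, 10 min RT) after 24 h, 37 °C compound exposure (final up to 57.5 uM) of HEK293 reporter cells cultured 24 h beforehand; PTC124 at 50 uM final as control inhibitor; activity scaled vehicle 0%, zero RLU -100%.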

Activity change, negative = inhibition, inactive:
Cc1ccc(NC(=O)CCN2C(=O)c3ccccc3Sc3ncccc32)c(Cl)c1 -21%
COc1ccccc1NC(=O)c1sc2nc(C)c(C(=O)Nc3ccc(C)cc3C)c(-c3ccccc3Cl)c2c1N -6.25%
Cc1ccc2oc(=O)c3cc(C(=O)NCCc4ccc(Cl)cc4)sc3c2c1 -8.46%
CCS(=O)(=O)N1CCc2cc(C(=O)NCc3ccccc3Cl)ccc21 -3.97%
CCCCc1nn2c(=O)cc(COC(=O)c3ccccc3C)nc2s1 20%
CCc1ccccc1NC(=O)NC(CC)Cn1nnc2ccccc2c1=O (stereo not given) -0.437%
Cc1ccc(C)c(NC(=O)CSc2nc(=O)n(Cc3ccncc3)c3c2CCC3)c1 -18.8%
COC(=O)c1cc2sc(C)cc2n1Cc1nc(-c2ccc(C)cc2)oc1C -0.5%
CC(=O)N1c2ccc(S(=O)(=O)NCCC(=O)N(C)Cc3ccccc3)cc2CC1C (stereo not given) -20%
Cc1ccc(Nc2c(-c3ccc(C)cc3)nc3c(C)cccn23)cc1 -13.5%
CN(C)CCC(c1ccccc1)c1ccccn1 (stereo not given) 14%
CCOC(=O)c1ccc(NC(=O)Cn2cnc3sc(C(=O)OCC)c(C)c3c2=O)cc1 -29.6%
CCc1ccc(NC(=O)CSc2nc3c([nH]c4ccccc43)c(=O)n2-c2cccc(OC)c2)cc1 -27.9%
COc1cc(C)ccc1OCCSc1nc2ccc(NC(C)=O)cc2s1 -24.7%
CCCCCn1c(=O)c2c(nc3n2CCN3c2ccc(Br)cc2)n(C)c1=O 1.92%
CCC(Sc1nnc2c3ccccc3n(C)c2n1)C(=O)Nc1nnc(C(C)C)s1 (stereo not given) 6.33%
CCOc1ccc(NC(=O)CSc2nc(=O)[nH]c3c2CCC3)cc1 -27.6%
COc1ccc(-c2cc3ccc(O)c(CN4CCCC4)c3oc2=O)cc1OC 40.5%
Cc1ccc(C)c(CNC(=O)c2sc3ncnc(N(C)C4CCCCC4)c3c2C)c1 -13.3%
Cc1cc(F)ccc1NC(=O)CCSc1nc(-c2ccco2)cc(C(F)(F)F)n1 -17.4% [at 11.5 µM]
COC(=O)COc1ccc(Oc2nc(NC(C)(C)C)nc(N(C)C)n2)nn1 -6.38%
COc1ccc(CNC(=O)c2cn(-c3cccc(OC)c3)c(=O)c3ccccc23)cc1 -9.35%
Cc1ccc(C(=O)NC2(C(F)(F)F)N=C(c3ccccc3)N(C3CCCCC3)C2=O)cc1 (stereo not given) -14.8%
CCOC(=O)c1c(C)c(-c2ccccc2)n(CC(=O)Nc2cccc(C)c2C)c1C 0.457%
COc1ccc(C(=O)NCC(c2ccc3c(c2)OCO3)N2CCOCC2)cc1OC (stereo not given) -12.6%
CCn1c(CC2C(=O)N(C)c3ccc(Br)cc32)nc2ccccc2c1=O (stereo not given) -11.3%
Cc1ccc2nc(N(Cc3cccnc3)C(=O)CCOc3ccccc3)sc2c1 -9.48%
CCc1cc2c(cc3c(=O)n(CC(=O)NCCOC)nc(CC)n32)s1 -2.7%
CCCN1C(=O)C2(c3ccccc31)c1c(oc3ccccc3c1=O)C(=O)N2CCCOC(C)C (stereo not given) -16.5%
Cc1cccc(-c2nc(SCC(=O)N(C)c3ccccc3)c3c(=O)n(C)c(=O)n(C)c3n2)c1 -1.98%
O=C(O)c1ccc(C2Nc3ccccc3-c3nnc(SCc4ccc(Cl)cc4)nc3O2)cc1 (stereo not given) 2.06%
COc1cc(OC)c(NC(=O)N2CC=C(c3c[nH]c4ccccc34)CC2)cc1Cl -26.3%
COc1cccc(C(=O)Nc2ccc(C(=O)OCc3cc(=O)n4nc(C5CC5)sc4n3)cc2)c1 -12%
Cn1c(=O)cc(SCC(=O)N2CCN(c3ccccc3)CC2)c2ccccc21 1.4%
CC1CCN(c2cc(N3CCN(C)CC3)ccc2NC(=O)c2cc(C#N)c[nH]2)CC1 -6.69%
O=C(c1cccc(Cl)c1)N1CCC(c2nc3ccccc3o2)CC1 -26%
O=C(Cn1c(=O)n2nc(-c3cccc(F)c3)nc2c2ccccc21)N1CCN(c2ccccc2F)CC1 5.49%
COc1ccc(OC)c(NC(=O)c2c(C)oc3ncnc(N4CCOCC4)c23)c1 0.69%
CC1CCN(C(=O)C(C)Sc2nc(-c3ccccc3)cc(C(F)(F)F)n2)CC1 (stereo not given) -26.9%
CCCCn1c(=O)nc2n(-c3ccc(F)cc3)c3ccccc3cc-2c1=O -12.3%
CC(Sc1nc2c([nH]c3ccccc32)c(=O)n1-c1ccccc1)c1ccccc1 (stereo not given) -22.5%
Cc1ccc(-c2cc(C(F)(F)F)n3ncc(-c4ccc(Cl)cc4)c3n2)cc1 -12.1%
COc1ccccc1NC(=O)C1=C(C)Nc2nc(SCc3cccc(F)c3)nn2C1c1ccc(C(=O)O)cc1 (stereo not given) -4.81%
COc1ccccc1N1CCN(C(=O)c2cc3c(=O)oc4ccccc4c3s2)CC1 0.293%
CCOc1ccc(N2CC(c3nc4ccccc4n3CCOc3ccccc3)CC2=O)cc1 (stereo not given) -25.1%
Cc1nc2ncnn2c(C)c1CCC(=O)NCc1cccc(Cl)c1 -3.47%
Cc1ccc(NC(=O)c2cc(S(=O)(=O)N3CCCCC3)c[nH]2)cc1F -1.3%
COc1ccc(C2C=C(c3ccccc3)Nc3nc(NC(=O)/C=C/c4ccc(Cl)cc4)nn32)cc1 (stereo not given) -20.4%
CCOC(=O)c1c(NC(=O)COc2ccc(Br)cc2)sc(C(C)=O)c1C -21.2%
CCCCc1nn2c(=O)cc(COC(=O)c3ccccc3NC(=O)c3cccc(C)c3)nc2s1 -16.3%
Cc1cccc(NC(=O)c2c(C)oc3ncnc(N4CCCCC4)c23)c1C -15.9%
CC(=O)Nc1cccc(-c2cn3cccnc3n2)c1 -13.9%
Cc1ccc(NC(=O)Cn2c(=O)n(Cc3ccccc3)c(=O)c3c2c2cc(C)ccc2n3C)cc1 -13.5%
COc1ccc2nc(NC(=O)c3cc(=O)c4cc(C)c(C)cc4o3)sc2c1 -24.4%
CCOc1ccc(C(=O)c2c(N)c(-c3nc(-c4ccc(OCC)cc4)cs3)c3ccccn23)cc1 -12.1%
CCOC(=O)CSc1nc2c(sc3ccccc32)c(=O)n1Cc1ccc(OC)cc1 -8.5%
Cc1cccc(NC(=O)c2sc(-n3nc(C)c(CCC(C)C)c3C)nc2C)c1 -19.1%
COc1ccc(CCNc2nc3cc(OC)c(OC)cc3c3nc(-c4cccnc4)nn23)cc1OC -10.8%
COc1ccc(OC)c(NC(=O)N2CCN(Cc3nc4ccc(C)cc4o3)CC2)c1 -16.7%
COc1ccc(-c2cn3c(n2)sc2cc(C(=O)Nc4ccc(C)cc4C)ccc23)cc1 1.02%
COc1cc2ccccc2cc1C(=O)Nc1ccc2oc(-c3cccc(C)c3)nc2c1 19.2%
CCOc1ccc(NC(=O)CCSc2nc(-c3ccc4c(c3)OCO4)cc(C(F)(F)F)n2)cc1 3.84%
Cc1cc(-n2nc3ccc(Cl)cc3n2)c(O)c(C(C)(C)C)c1 -1.39%
COc1ccc(-n2c3c(cc(-c4nc(-c5ccc(Cl)cc5)cs4)c2=O)C(=O)CC(C)(C)C3)cc1Cl -10.8%
Cc1ccccc1NCc1nc2ccccc2n1CCOc1ccccc1 50.7%
CCN1C(=O)c2ccccc2Sc2ccc(NC(=O)c3ccc(C#N)cc3)cc21 3.96%
O=C1NC(c2ccccc2)(c2ccccc2)C(=O)N1COP(=O)(O)O 7.64%
CN(C(=O)Cn1nnc(-c2ccc(S(C)(=O)=O)cc2)n1)c1ccccc1 -4.23%
Cc1c(C(=O)N(C)C)sc2c1c(=O)n(-c1ccccc1C(F)(F)F)c(=O)n2Cc1cccc(F)c1 -10.2%
O[C@@H]1CO[C@H]2[C@@H]1OC[C@@H]2O 5.05%
CCOC(=O)N1CCc2c(sc3c2c(=O)n(-c2ccc(F)cc2)c(=O)n3CC(=O)c2ccccc2)C1 -6.23%
Cc1cccc(CN2C(=O)c3ccccc3Sc3ccc(C(=O)NCc4cccs4)cc32)c1 -18.6%
O=C(NCCc1ccccc1)C1COc2ccccc2C1 (stereo not given) 20.3%
CCOC(=O)c1c(C)n(-c2ccccc2)c2ccc(OC(=O)c3cc(OC)cc(OC)c3)cc12 -9.83% [at 11.5 µM]
CCc1ccc(NC(=O)c2cc(C)nn2-c2ccccc2)cc1 -18.3%
Cc1cc(=O)n(CC(=O)NC(C)c2ccccc2)c2c1c(C)nn2C (stereo not given) -39.6%
CCOC(=O)c1c(NC(=O)c2cc3ccccc3c(=O)o2)sc2c1CCC(C(C)(C)C)C2 (stereo not given) -6.11%
CCOc1ccc(NC(=O)CCNS(=O)(=O)c2cccc3nsnc23)cc1 -4.02%
CCc1cccc(C)c1NC(=O)C(CC)Sc1nncn2c1cc1occc12 (stereo not given) -23.7%
CCC(=O)Nc1cc(-c2nc3ccccc3s2)c(Cl)cc1Cl -4.83%
CCS(=O)(=O)N1CCc2cc(C(=O)Nc3cc(OC)c(Cl)cc3OC)ccc21 -14.8%
COc1ccc(NC(=O)c2oc3ccccc3c2NC(=O)COc2ccc(F)cc2)c(OC)c1 -6.59%
CN1[C@H]2CC(OC(=O)[C@@H](CO)c3ccccc3)C[C@H]1[C@H]1O[C@H]12 (stereo not given in full) 2.9% [at 25.2 µM]
O=C(c1ccc2c(c1)N(Cc1ccc(Cl)cc1)C(=O)c1ccccc1S2(=O)=O)N1CCc2ccccc21 -23%
CCC(C(=O)Nc1cccc(C#N)c1)n1nc(-c2ccccc2)ccc1=O (stereo not given) -26.4%
COC(=O)c1ccccc1NC(=O)CSc1nnc2cc(C)c3cc(C)cc(C)c3n12 -21.5%
Cc1ccc(NC(=O)CCCn2nc(C)c3sc4ccccc4c3c2=O)c(Cl)c1 4.51%
O=C(NCc1ccc(F)cc1)C(=O)NCC(c1ccco1)S(=O)(=O)c1cccs1 (stereo not given) -22%
O=C(Cn1ccc2cc(S(=O)(=O)N3CCCC3)ccc21)NCc1ccccc1Cl -2.72%
Cc1nnc(NCc2ccc(F)cc2)c2c1nnn2Cc1ccccc1Cl -5.18%
CCOc1ccc(NC(=O)CCn2nc(C)c(S(=O)(=O)N3CCCCC3)c2C)cc1 -26%
COc1ccccc1N1CCN(S(=O)(=O)c2c(C)sc3ncn(CC(=O)NCCN(C)C)c(=O)c23)CC1 0.095%
COc1ccc(OC)c(NC(=O)CSC2=Nc3ccccc3C3=NC(CCC(=O)NCCc4ccccc4)C(=O)N23)c1 (stereo not given) -29.8%
O=C(NCCC1=CCCCC1)c1ccc2c(c1)N(Cc1ccc(Cl)cc1)C(=O)c1ccccc1S2(=O)=O -10.6%
CCc1ccc(N2C(=O)N(CC(=O)C(C)(C)C)c3ccccc3S2(=O)=O)cc1 -12.8%
